Measurements taken from paper PMC4336329 (PLoS ONE, 2015).
In all, about 310,000 compounds went through this assay and about 2,200 (0.71%) showed an effect of 50% or more. The effect is printed as a negative number. Some of the results follow.

biological target: human ether-à-go-go-related gene (hERG) potassium channel (human, UniProt Q12809); experiment: primary screen, population patch clamp on CHO cells stably expressing hERG
Sequence (Q12809 whole entry, looked up): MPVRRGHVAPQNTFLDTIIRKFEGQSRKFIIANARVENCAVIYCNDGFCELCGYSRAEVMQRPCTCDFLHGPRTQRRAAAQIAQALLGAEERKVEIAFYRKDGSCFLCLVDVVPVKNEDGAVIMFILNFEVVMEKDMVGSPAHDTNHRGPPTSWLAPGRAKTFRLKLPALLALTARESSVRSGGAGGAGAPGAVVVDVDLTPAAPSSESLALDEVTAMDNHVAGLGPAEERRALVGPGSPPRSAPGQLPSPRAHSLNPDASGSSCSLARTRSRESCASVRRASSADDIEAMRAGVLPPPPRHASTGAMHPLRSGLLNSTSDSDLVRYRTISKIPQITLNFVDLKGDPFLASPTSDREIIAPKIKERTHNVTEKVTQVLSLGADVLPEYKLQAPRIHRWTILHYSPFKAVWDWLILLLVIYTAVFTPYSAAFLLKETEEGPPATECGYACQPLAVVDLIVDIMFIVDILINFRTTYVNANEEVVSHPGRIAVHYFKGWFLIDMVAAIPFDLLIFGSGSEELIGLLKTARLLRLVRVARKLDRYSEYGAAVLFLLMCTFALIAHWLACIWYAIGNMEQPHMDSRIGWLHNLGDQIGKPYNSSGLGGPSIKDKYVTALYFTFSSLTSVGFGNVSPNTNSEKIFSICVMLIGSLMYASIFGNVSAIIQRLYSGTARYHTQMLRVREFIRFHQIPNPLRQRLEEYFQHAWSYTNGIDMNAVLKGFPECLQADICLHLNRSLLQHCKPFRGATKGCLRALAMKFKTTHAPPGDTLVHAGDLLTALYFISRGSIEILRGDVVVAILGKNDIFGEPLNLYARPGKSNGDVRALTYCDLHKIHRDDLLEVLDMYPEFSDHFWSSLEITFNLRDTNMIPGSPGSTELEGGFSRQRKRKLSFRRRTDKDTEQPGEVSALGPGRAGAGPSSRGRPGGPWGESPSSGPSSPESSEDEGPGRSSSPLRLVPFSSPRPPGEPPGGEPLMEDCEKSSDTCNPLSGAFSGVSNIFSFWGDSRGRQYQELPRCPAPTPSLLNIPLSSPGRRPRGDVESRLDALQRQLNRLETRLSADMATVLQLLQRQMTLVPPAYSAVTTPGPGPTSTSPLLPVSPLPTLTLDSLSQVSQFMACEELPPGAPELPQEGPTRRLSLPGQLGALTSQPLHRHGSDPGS

Row | SMILES | hERG current change (%, negative = inhibition) at 1uM [%]
1 | CCOC(=O)c1ccc(NC(=O)Cn2cnc(S(=O)(=O)N3CCCC3)c2)cc1 | 14.8
2 | O=C(CC(=O)N/N=C\c1ccc([N+](=O)[O-])cc1)NCCc1ccccc1 | 0.942
3 | CCOc1ccc(NC(=O)CN(C)CC(=O)Nc2cccc(Cl)c2C)cc1OCC | 7
4 | CC(C)(C)c1cc(CCC(=O)N2CCCC2)cc(C(C)(C)C)c1O | 14.4
5 | CCOC(=O)C1(CCOc2ccccc2)CCN(Cc2ccc(OC)c(O)c2)CC1 | -88.3
6 | O=c1c2c(nc3nc(NCc4ccccc4Cl)[nH]n13)CCC2 | 14
7 | Oc1ccc(N2CCN(C(=S)NCc3ccccc3)CC2)cc1 | 5.58
8 | COc1ccc(-c2nc(CS(=O)CC(=O)NCCc3ccc(OC)c(OC)c3)c(C)o2)cc1 (centres unmarked) | 10.3
9 | CC(C)N(Cc1nccn1C)C(=O)c1ccc2oc(CCCc3ccccc3)nc2c1 | -14.9
10 | O=C(COC(=O)/C=C/c1ccccc1Cl)NC(=O)Cc1ccccc1 | 13.3
11 | Cc1ccc(C(=O)COC(=O)CNC(=O)COc2ccccc2C)cc1C | 11.1
12 | Fc1ccc(-c2ccc(Nc3cccc(F)c3)nn2)cc1 | 10.6
13 | Cc1nnc2sc(-c3ccco3)nn12 | 3.89
14 | Cc1ccccc1CNC(=O)C1CCC(=O)N(C2CCCCCC2)C1 (centres unmarked) | 14
15 | COc1ccc(CCNC(=O)c2ccc3c(c2)N(Cc2ccc(C)cc2)CCS3)cc1OC | 9.85
16 | CC1(C)C(CC2OCC(CN3CCCCC3)O2)[C@H]2CC[C@@H]1C2 (some centres unmarked) | 14.5
17 | Cc1onc(-c2ccccc2Cl)c1C(=O)Oc1cccc2cccnc12 | 11.1
18 | Cl.OC1(c2ccc(F)cc2)CCNC1 (centres unmarked) | 16.1
19 | CC1CCC(N2CCN(S(=O)(=O)Cc3ccccc3)CC2)CC1 (centres unmarked) | 7.06
20 | N#CC1(c2ccccc2)CCCN1C(=O)c1ccccc1Cl (centres unmarked) | 9.34
21 | CC(NCc1ccccc1Cl)C(=O)Nc1ccc(C#N)cc1 (centres unmarked) | -8.31
22 | Cn1c(=O)c2c(nc(SCC(=O)Nc3ccccc3)n2C)n(C)c1=O | 5.83

Row | SMILES | hERG current change (%, negative = inhibition) at 1uM [%]
23 | COc1ccc(NC(=O)c2cnc(SCC(=O)NCCc3ccccc3)n(C)c2=O)cc1 | 11.6
24 | CC(C)n1c(O)c(N=Nc2ccc(Cl)nn2)c2ccccc21 | 10.7
25 | O=C(O)Cn1cc(/C=N/Nc2ccc([N+](=O)[O-])cn2)c2ccccc21 | 17.5
26 | Cc1ccc(S(=O)(=O)N2CCN(CC(=O)NC3CCCc4ccccc43)CC2)cc1C.O=C(O)C(=O)O (centres unmarked) | 1.77
27 | CC1Cc2cc(-c3csc(NC(=O)Cc4cccs4)n3)ccc2N1S(C)(=O)=O (centres unmarked) | 0.59
28 | Cc1cc(=O)oc(C)c1C(=O)NCCCN1CCN(c2ccc(F)cc2)CC1 | -29.3
29 | CC(=O)NC(CC(=O)NCCc1ccccc1)c1ccccc1 (centres unmarked) | 10.9
30 | Cc1cc(C(C)(C)C)oc1C(=O)NCCCNC(=O)c1oc(C(C)(C)C)cc1C | 18.2
31 | Cc1cc(C=O)c(C)n1-c1ccc(N2CCOCC2)c([N+](=O)[O-])c1 | 18
32 | COc1cccc(CNS(=O)(=O)c2ccc3c(c2)CC(C)N3C(C)=O)c1 (centres unmarked) | 9.31
33 | COc1ccccc1N1CCN(C(=O)c2cc(-c3ccc4c(c3)OCO4)on2)CC1 | 6.23
34 | Cc1ccc(C(=O)Nc2nc(-c3ccc([N+](=O)[O-])cc3)cs2)o1 | 11.8
35 | COC(=O)c1cccc(NC(=O)c2cccc(OC)c2)c1 | 6.48
36 | COCCNC(=O)/C(C#N)=C/c1c(N2CCN(c3ccccc3)CC2)nc2ccccn2c1=O | 4.77
37 | NC(=O)c1c(-c2cccs2)csc1N | 14.8
38 | Cc1onc(-c2c(F)cccc2Cl)c1C(=O)ONC(=O)c1ccccc1 | 15.1
39 | CCOC(=O)c1c(NC(=O)COC(=O)c2cc(OC)c(OC)cc2[N+](=O)[O-])sc(C)c1C | -9.91
40 | CCN(CC)c1nc(N)c2c(N)nc(OC)cc2c1C#N | 2.34
41 | O=C(O)CCc1ccc(-c2ccc(F)cc2)n1Cc1ccco1 | 8.19
42 | Nc1nonc1-n1nnc(C(=O)N/N=C/c2cccc(Cl)c2)c1CN1CCCCCC1 | 18.9
43 | O=S(=O)(Nc1nccs1)c1ccc(NS(=O)(=O)c2cccs2)cc1 | 16.6
44 | O=C(Nc1cc(Cl)ccc1-n1cncn1)c1cn2ccccc2n1 | 9.61
